Experimental data taken from PubChem BioAssay AID1508642 (National Center for Advancing Translational Sciences (NCATS), 2021).
In all, about 43,000 compounds went through this assay and about 200 (0.47%) were called active. Not shown: some 12% with an inconclusive outcome. Calls come from the whole dose curve; as a rule, active = well fitted cell-killing curve with a large enough effect; inconclusive = small, poorly fitted or top-dose-only effect, or effect the other way; inactive = flat fitted curve, though single readings scatter. The list shows a part of the results.

Assay: Cell viability qHTS assay in S16 Pmp22-F2sN cells; note: nearly all actives have a fitted effect of over 65% in size
Conditions: S16 Pmp22-F2sN Schwann cells (luciferase reporters placed in the Pmp22 gene) viability, CellTiter-Glo, 24 h; series mostly up to 57.5 µM; activity change, negative = cytotoxicity: at the top concentration
Method in brief: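 CellTiter-Glo counter-screen, qHTS, 1536-well. Cells: S16(c9) Pmp22-F2sN, 500-1,000/well in DMEM + 10% FBS. Cpd 23 nL pin transfer, 24 h, 37C/5% CO2. Read: luminescence, CCD imager.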
% is set by controls: 0 for no effect and ±100 for the full control effect; potency is the fitted concentration of half-maximal effect.

| Compound | activity change, negative = cytotoxicity | Potency |
| --- | --- | --- |
| Cc1cccc(NC(=O)COC(=O)CCCC2=NS(=O)(=O)c3ccccc3N2)c1 | inactive: 0.825% |  |
| COc1ccc(S(=O)(=O)c2cn(C)c3ccc(C)cc3c2=O)cc1 | inactive: 4.51% |  |
| O=C(Nc1ccc(F)cc1C(F)(F)F)C1CCN(c2ncccn2)CC1 | inactive: 0.929% |  |
| Cc1cccc(NC(=O)c2c(C)cc(C)nc2SCC(=O)c2ccccc2)c1 | inactive: -19.2% |  |
| Cc1ccc(-n2cc(C(=O)Oc3cccc(C)c3)c3ccccc3c2=O)cc1 | inactive: -1.33% |  |
| O=c1c2ccccc2n(Cc2ccccc2Cl)c(=O)n1CCc1ccccc1 | inactive: 7.47% |  |
| CCOC(=O)c1ccc(Nc2nc3ccc(C(=O)c4ccccc4)cc3n3c(C)nnc23)cc1 | inactive: -0.832% |  |
| CCCN(CCC)C(=O)Cn1c(=O)n(-c2ccc(CC)cc2)c(=O)c2ccc(C(=O)NCCc3ccccc3)cc21 | inactive: 2.45% |  |
| COc1ccc(CCNC(=O)c2ccc3c(c2)CCN3S(=O)(=O)c2ccc(C)cc2)cc1 | inactive: -6.27% |  |
| CC(C)(C)OC(=O)N1CCC(c2c(C(=O)NC3CCN(Cc4ccccc4)CC3)cnn2-c2ccc(F)cc2F)CC1 | inactive: -22.2% |  |
| CCOc1ccc(NC(=O)C(=O)c2cc(C)n(-c3cc(C)cc(C)c3)c2C)cc1 | inactive: 9.03% |  |
| Cc1ccc(NC(=O)C2CCCN(S(=O)(=O)c3ccc4c(c3)oc(=O)n4C)C2)cc1Cl (stereo not given) | inactive: 2.4% |  |
| COc1ccc(-c2cc(C(=O)NCCc3ccccc3)c3c(-c4ccccc4)[nH]nc3n2)cc1OC | inactive: -25.6% |  |
| CCCCCOc1ccc(Cn2c(=O)oc3ccccc32)cc1 | inactive: -0.738% |  |
| COc1cc(Cl)c(NC(=O)CCS(=O)(=O)c2ccc3c(c2)NC(=O)CO3)c(OC)c1 | inactive: 0.0347% |  |
| COc1ccc(NC(=O)c2c(NCc3sccc3C)sc3c2CCCC3)c(OC)c1 | inactive: 19% |  |
| CCc1nn2c(=O)cc(COC(=O)CNC(=O)COc3ccc(C)cc3)nc2s1 | inactive: 28.1% |  |
| CCCn1c(=O)sc2cc(NC(=O)c3ccc(OC)c(Br)c3)ccc21 | inactive: -28.5% |  |
| Cc1ccc(-n2nc(CO)c(C(=O)NC(C)CCCc3ccccc3)n2)cc1 (stereo not given) | inactive: -0.328% |  |
| COc1ccc(Nc2nc(N)nc(N)c2S(=O)(=O)c2ccccc2)cc1 | inactive: 29.2% |  |
| Cc1cn(C)c(CC(=O)N2CCN(c3cccc(Cl)c3)CC2)c1C(=O)O | inactive: -1.97% |  |
| Cc1ccc(NC(=O)CN2CCN(S(=O)(=O)c3ccc(C(C)C)cc3)CC2)cc1F | inactive: -29.7% |  |
| Cc1cccc(C2C=C(c3ccc(C)c(C)c3)Nc3nnnn32)c1 (stereo not given) | inactive: -4.01% |  |
| CCOc1ccccc1C(=O)NC1(C(F)(F)F)NC(=O)N(CCc2ccc(OC)c(OC)c2)C1=O (stereo not given) | inactive: -0.421% |  |

| Compound | activity change, negative = cytotoxicity | Potency |
| --- | --- | --- |
| COc1cc(OC)cc(-c2cc3nc(C)c(CCC(=O)NCc4ccccc4)c(C)n3n2)c1 | inactive: -5.27% |  |
| O=C(Nc1ccc(O)c(-c2nc3ccccc3o2)c1)c1sc2ccccc2c1Cl | inactive: 1.45% |  |
| O=C(CSCc1cnn(-c2ccccc2)c1-n1cccc1)NCc1ccc(Cl)cc1 | inactive: 2.81% |  |
| O=C(Nc1nnc(S(=O)(=O)N2CCCc3ccccc32)s1)c1ccccc1Cl | inactive: 4.27% |  |
| CCOc1ccccc1NC(=O)Cn1ncc2c(=O)oc3ccc(C)cc3c21 | inactive: 0.932% |  |
| CCOC(=O)c1c(C)oc2ncnc(Nc3ccc(OC)cc3OC)c12 | inactive: 12.6% |  |
| COc1ccccc1NC(=O)CSC1=Nc2ccccc2C2=NC(CCC(=O)NCCc3ccccc3)C(=O)N12 (stereo not given) | inactive: -0.0569% |  |
| CCOc1ccccc1CNC(=O)C1CCN(S(=O)(=O)c2ccc3[nH]c(=O)ccc3c2)CC1 | inactive: 15.4% |  |
| CN1C(=O)Cc2cc(S(=O)(=O)NCCc3ccc(Cl)cc3)ccc21 | inactive: 0.369% |  |
| COc1ccc(-c2noc(CSc3nnc(C)n3-c3ccc(C)cc3)n2)cc1OC | inactive: -17.7% |  |
| O=C(Nc1nc2c(s1)CCCCCC2)Nc1ccc(F)cc1F | inactive: -0.109% |  |
| COc1ccc(N2CCN(C(c3ccccc3)c3sc4nc(-c5ccco5)nn4c3O)CC2)cc1 (stereo not given) | inactive: 8.64% |  |
| Cc1ccc(C(=O)Nc2cc(-c3nc4ncccc4o3)ccc2C)c(C)c1 | inactive: -1.33% |  |
| COCc1nn2cc(-c3ccc(C)cc3)nc2s1 | inactive: -9.1% |  |
| Cc1cccc(N2CCN(C(=O)Cc3c(C(=O)O)c(C)cn3C)CC2)c1C | inactive: 0.768% |  |
| CC(=O)N1CCc2c(sc3c2c(=O)n(Cc2ccccc2)c(=O)n3Cc2ccc(C)cc2)C1 | inactive: 0.962% |  |
| COC(=O)c1ccc(Cn2cnc3nc4c(cc3c2=O)CCCC4)cc1 | inactive: 2.81% |  |
| CC(=O)c1ccc(N2CCN(C(=O)C3CCN(S(=O)(=O)c4c(C)noc4/C=C/c4ccc(C)cc4)CC3)CC2)cc1 | inactive: -7.68% |  |
| CCOCCCNC(=O)C1CCN(C(=O)c2cc3sccc3n2C)CC1 | inactive: -1.71% |  |
| CCC(Cc1ccccc1)NC(=O)CN1C(=O)COc2ccc(S(=O)(=O)N3CCCCCC3)cc21 (stereo not given) | inactive: 3.52% |  |
| Cc1cc2c(cc1NC(=O)c1ccccc1C)n(C)c(=O)c(=O)n2C | inactive: 9.33% |  |
| COc1ccc(CCNC(=O)CCCn2c(=O)c3cccn3c3ccccc32)cc1OC | inactive: 5.04% |  |
| O=C(COc1ccccc1)OCc1cc(=O)n2nc(C3CC3)sc2n1 | inactive: -4.13% |  |
| COc1cc(-c2nnc(SCCOc3ccc(Cl)cc3)o2)cc(OC)c1OC | inactive: 1.02% |  |

| Compound | activity change, negative = cytotoxicity | Potency |
| --- | --- | --- |
| CCc1ccc(CNC(=O)CCCN2C(=O)CCn3nc(-c4cccn4C)cc32)cc1 | inactive: 18.5% |  |
| COc1ccc(NC(=O)CCCN2C(=O)C(c3ccccc3)Oc3cccnc32)c(OC)c1 (stereo not given) | inactive: 8.7% |  |
| CCc1ccc2oc(C(=O)Nc3cccc(Cl)c3C)cc(=O)c2c1 | inactive: -5.12% |  |
| CC(C)CCN(Cc1ccco1)C(=O)c1cc2c(s1)-c1ccccc1OC2 | inactive: 2.92% |  |
| O=C(CSc1c2c(nc3ccc(Cl)cc13)CCCC2)NCc1ccccc1Cl |  | active: 22.4 µM |
| COc1ccc(CCNC(=O)c2cc(=O)c3cc(C)cc(C)c3o2)cc1OC | inactive: 1.23% |  |
| N=c1n(CCO)c2ccccc2n1Cc1ccccc1F | inactive: 0.993% |  |
| COc1ccc(Br)c(C(=O)Nc2cc3c(cc2N2CCCC2)n(C)c(=O)c(=O)n3C)c1 | inactive: 2.05% |  |
| Cc1ccc(-c2cc(C(=O)OCC(=O)c3ccccc3)c3cccc(Cl)c3n2)cc1 | inactive: -3.82% |  |
| O=C(OCc1ccco1)c1ccc2c(c1)N(Cc1cccc(F)c1)C(=O)c1ccccc1S2 | inactive: 21.4% |  |
| Cc1cc(N(C)Cc2ccccc2)n2nc(-c3ccc(C(C)(C)C)cc3)nc2n1 | inactive: 1.94% |  |
| CCCCNC(=O)c1cccc(-n2cnc3cccnc32)c1C | inactive: 2.71% |  |
| CC1CCCCN1C(=O)c1ccc2c(c1)N(Cc1cccc(Cl)c1)C(=O)c1ccccc1S2=O (stereo not given) | inactive: -11.9% |  |
| CCC(NC(=O)Nc1cc(Cl)ccc1OC)c1c(-n2cccc2)sc2c1CCN(C)C2 (stereo not given) | inactive: -20.8% |  |
| CCCCCn1c(=O)[nH]c2cc(C(=O)NCCN(C)CCCC)ccc2c1=O | inactive: -11.1% |  |
| COc1ccc(OCCn2nnc3sc4c(c3c2=O)CCC(C(C)(C)C)C4)cc1 (stereo not given) | inactive: 12.7% |  |
| CC1CCN(c2nc3c(-c4cccc(Br)c4)nnn3c3ccccc23)CC1 | inactive: 11.7% |  |
| CCc1ccc(-n2nc3cc(C)c(NC(=O)c4ccccc4C)cc3n2)cc1 | inactive: -2.56% |  |
| CCOc1ccc(-c2c(C)nn3c(C)c(C(=O)NCc4ccc(Cl)cc4)cnc23)cc1OCC | inactive: 3.55% |  |
| Cc1cc(C)c2c(=O)cc(C(=O)Nc3nc4ccc(F)cc4s3)oc2c1 | inactive: 5.41% |  |
| CCC(CC)C(=O)Nc1c(C(=O)N2CCN(c3ccccc3)CC2)oc2ccccc12 | inactive: -3.03% |  |
| Cc1ccc(CNS(=O)(=O)c2ccc(-c3cnc(C4CC4)o3)cc2)cc1 | inactive: -24.8% |  |
| CCc1cccc(NC(=O)Cn2c(=O)c(C(F)(F)F)nc3ccccc32)c1 | inactive: 0.466% |  |
| Cc1cccc(CSc2nc3cc(C(=O)NC4CCCC4)ccc3c(=O)n2Cc2ccccc2)c1 | inactive: 0.813% |  |

| Compound | activity change, negative = cytotoxicity | Potency |
| --- | --- | --- |
| Cc1coc2cc3oc(=O)c(CC(=O)N4CCCCC4)c(C)c3cc12 | inactive: 11% |  |
| COc1ccc(CCNc2nc(-c3ccc(Cl)cc3)cc(C(F)(F)F)n2)cc1OC | inactive: 6.83% |  |
| CCOC(=O)c1c(C)[nH]c(C)c1S(=O)(=O)N1CCC(C(=O)N2CCN(c3cccc(C)c3C)CC2)CC1 | inactive: -20.2% |  |
| COc1ccccc1-c1nc2c(c(SCc3ccc(F)cc3Cl)n1)Cc1c(CO)cnc(C)c1O2 | inactive: -3.47% |  |
| COC(=O)c1ccc(NC(=O)CCc2c(C)nn(-c3ccc(N4CCOCC4)nn3)c2C)cc1 | inactive: -5.68% |  |
| COc1ccc(Cl)cc1NC(=O)Cc1coc2c(C)c(C)ccc12 | inactive: -13.1% |  |
| COc1ccccc1-c1nc2c(c(SCC(=O)Nc3ccccc3F)n1)Cc1c(CO)cnc(C)c1O2 | inactive: -3.25% |  |
| COc1ccccc1N1CCN(CCCNC(=O)c2nnc(Cc3c(F)cccc3Cl)o2)CC1 | inactive: -2.74% |  |
| CC(O)CNC(=O)C(=O)Nc1c2c(nn1-c1ccc(Cl)cc1)CSC2 (stereo not given) | inactive: -2.06% |  |
| COc1ccc(NC(=O)C2CCCN(C(=O)c3cnn(-c4ccccc4)c3-n3cccc3)C2)cc1 (stereo not given) | inactive: -22.4% |  |
| CCOc1ccc(CCNC(=O)CS(=O)(=O)Cc2nc(-c3cccc(Cl)c3)oc2C)cc1 | inactive: -0.47% |  |
| COc1ccccc1C(=O)Nc1c(C(=O)N2CCN(c3ccc(F)cc3)CC2)oc2ccccc12 | inactive: -2.07% |  |
| Cc1ccc2c(=O)cc(C(=O)N(Cc3ccccc3Cl)C3CCS(=O)(=O)C3)oc2c1 (stereo not given) | inactive: -4.55% |  |
| COc1ccc(-c2cc(-c3ccccc3)c(C#N)c(SCC(O)CS(=O)(=O)Cc3ccccc3)n2)cc1 (stereo not given) | inactive: 2.4% |  |
| Cc1cc(C)c2oc(C(=O)Nc3c(C)n(C)n(-c4ccccc4)c3=O)cc(=O)c2c1 | inactive: 2.09% |  |
| CC(=O)N1CCc2c(sc3c2c(=O)n(-c2ccccc2C)c(=O)n3CC(=O)c2ccccc2)C1 | inactive: 2.91% |  |
| Cc1ccc(C(=O)NCC(=O)OCc2cc(=O)n3c(C)csc3n2)cc1 | inactive: 20.7% |  |
| Cc1ccc(-n2nc3cc(C)c(NC(=O)COc4ccccc4)cc3n2)cc1 | inactive: 9.35% |  |
| CCOC(=O)CCN(c1ccccc1)S(=O)(=O)c1cc(-c2cc(C)no2)ccc1C | inactive: -13.1% |  |
| CCc1cc2c(cc3c(=O)n(CC(=O)NC4CCCCC4)nc(CC)n32)s1 | inactive: 4.91% |  |
| Cc1cn(C)c(CC(=O)N2CCN(c3cccc(C(F)(F)F)c3)CC2)c1C(=O)O | inactive: 7.78% |  |
| Cc1ccc(-n2cc3c(c2-c2ccccc2Br)c(=O)n(C)c(=O)n3C)cc1N | inactive: -13% |  |
| Cc1ccc(C)c(NC(=O)Cn2c(=O)n(-c3ccccc3C)c(=O)c3c2c2cc(C)ccc2n3C)c1 | inactive: 1.77% |  |
